This passage reports GI50 and TGI results from PubChem BioAssay (NCI).

Structures are written as SMILES. Values joined by “and” are separate entries in the source; they are usually repeats but may differ in a detail not shown here. Equal values may be shown once.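 Test compounds were applied to cells in 96-well plates for 48 hours at 5 doses. GI50 is the concentration that inhibits growth by half. TGI: total growth inhibition.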

The test system of the assay is NCI-H322M lung. The assay is described as follows: growth of human tumour cells (NCI), 48 h.
With `COC(=O)c1c2c(c(C)[n+]([O-])c1C)C(=O)C(NCc1ccc(F)c(F)c1)=CC2=O`, the GI50 is 2.07 µM and the TGI was 6.59 µM. As for `CCOC(=O)/C=C1\Nc2ccccc2-n2nnnc21`, the TGI was > 100 µM. As for `C#C[C@@]1(O)[C@@H](CO)O[C@@H](n2cc(F)c3c(N)ncnc32)[C@@H]1O`, the GI50 was 0.497 µM and the TGI was 4.48 µM. `C/C(=C\COP(=O)(O)OP(=O)(O)O)CC/C=C(\C)CNc1ccc([N+](=O)[O-])cc1`: the TGI was > 100 µM.

With `CCOC(=O)Oc1cc2c(ccn2C)c2c1c1ccccc1n2C(=O)OCC`, the TGI is > 100 µM. As for `Cc1cc(C)nc(SC2=C(Nc3cccc(Cl)c3)C(=O)N(Cc3ccccc3)C2=O)n1`, the GI50 was > 170 µM and the TGI was > 170 µM. As to `CCCCCCCCCCCCCCCCOCCCOP(=O)(O)C1CCCN(O)C1=O` (centres undefined), the GI50 was 0.89 µM and the TGI came out at 15.3 µM. The compound `CC(C)C(Cl)CC/C(CBr)=C(\Cl)CCl` (centres undefined) yielded a TGI of 29.4 µM. On the same count and under the same terms, under `Cc1ccc(C2=NO[C@@H]3C(=O)N(c4ccc(Cc5ccc(N6C(=O)[C@H]7C(c8ccc(C)cc8)=NO[C@H]7C6=O)cc5)cc4)C(=O)[C@H]23)cc1` stands > 100 µM; under `COC(=O)C1=CC2OC1(C)C1(CC1)C2=O` (centres undefined), > 100 µM; under `COC(=O)N/N=C(\C)C(CN1CCOCC1)C(c1ccccc1)c1cc2ccccc2oc1=O` (centres undefined), > 100 µM. On the same count and under the same terms, under `CN(CCO)c1nc2c(c(=O)[nH]1)CNCC2` stands > 100 µM; under `CC(C)=CCC[C@@H](C)C1=C(Nc2ccccc2)C(O)=C(C)C(=O)C1=O`, > 100 µM.

`Cc1ccc(NC(=O)c2ccnc(N3CCCC3)c2)cc1-c1ccc(C(=O)NCC2CC2)cc1`: the GI50 was > 25 µM and the TGI is > 25 µM.

Regarding `CCCCCNC1=CC(=O)c2ccccc2C1=O`, the TGI is > 100 µM.

`N#CC(C#N)=C1CCCCc2ccc([N+](=O)[O-])cc21`: the TGI was > 100 µM. Same read-out and setting: under `COC1/C=C\OC2(C)Oc3c(C)c(O)c4c(O)c(c(CN(C)C)c(O)c4c3C2=O)NC(=O)/C(C)=C\C=C/C(C)C(O)C(C)C(O)C(C)C(OC(C)=O)C1C` (centres undefined) stands > 100 µM; under `Cc1ccccc1NC(=O)/C(C#N)=N\Nc1nc[nH]c1C(N)=O`, > 100 µM. Still for that read-out and setting: under `O=C(O)CC1(C(=O)O)CCCCC1` stands > 100 µM. Consider `O=C(/C=C\c1ccccc1-c1ccccc1)c1ccccc1`, for which the TGI was > 100 µM. On the same count and under the same terms, under `Cc1ccc2[nH]c(=O)c(C(C#N)c3ccccc3)nc2c1` (centres undefined) stands > 100 µM. The same measure, in the same setting: the same measure for `CN=S(=O)(C[C@]1(O)CC2OC1C1OC(C)(C)OC21)c1ccccc1` (some centres undefined): > 100 µM; for `COc1cc(-c2c(C)c(C)nc(OC)c2C#N)cc(OC)c1OC`: > 100 µM; for `CCOC(=O)C1=C(C)N(NC(=O)c2ccccc2)C2(O)CCCC12C(=O)OCC` (centres undefined): > 100 µM. For the compound `[N-]=[N+]=CC(=O)OCC(N)C(=O)O` (centres undefined), the GI50 was 5.23 µM and the TGI was > 100 µM. Consider `CC1C(=O)N(C)C2(CO)C(=O)O[C@H](C)C12O` (some centres undefined), for which the TGI is > 100 µM. Still for that read-out and setting: under `Cc1c(CCl)c(=O)oc2c(C)c3occ(CCl)c(=O)c3cc12` stands > 100 µM. As for `COc1ccc(-c2nc(-c3nc4cc(C)c(C)cc4[nH]3)cc3c2[nH]c2ccccc23)cc1`, the GI50 is 8.11 µM and the TGI was > 100 µM.

On to `O=C(O)CCC1CCC(c2cc(F)ccc2F)(S(=O)(=O)c2ccc(Cl)cc2)CC1` (centres undefined), for which the GI50 was 56.6 µM and > 100 µM; the TGI is > 100 µM. As for `COc1ccc(C(=O)N2CCN(c3ccc4[nH]c(=O)oc4c3)CC2)cc1`, the TGI is > 100 µM.

As for `COC(=O)/C=C(\S/C(=C(/c1ccc(OC)cc1)n1cc(C(=O)OC)c(C(=O)OC)n1)c1ccc(OC)cc1)C(=O)OC`, the TGI is > 100 µM. Regarding `CCO/C(O)=C(/C(=N)N1CCCC1)C(=O)Nc1ccc(Cl)cc1`, the TGI was > 100 µM. Regarding `C=C1CC(COc2ccc3ccc(=O)oc3c2)(c2ccccc2)OC1=O` (centres undefined), the TGI amounted to 24.3 µM.

In the case of `Cc1cccc(N=C2c3cc([N+](=O)[O-])ccc3-c3c2cc([N+](=O)[O-])cc3[N+](=O)[O-])c1`, the GI50 was 13.9 µM and the TGI was found to be 32.4 µM. Taken in the same sequence, the figures for `C[C@]12CCC(=O)C=C1CC[C@@H]1[C@@H]2CC[C@]2(C)C(=O)/C(=C/c3cccc(OCCN4CCOCC4)c3)C[C@@H]12` were 52.8 µM and > 100 µM. Consider `CO[C@H](c1ccccc1)[C@H](O)[C@](O)(c1ccccc1)P(=O)(OC)OC`, for which the TGI is > 100 µM. Still for that read-out and setting: under `O=C1c2ccccc2C(=O)c2nc(-c3ccccc3)c(-c3ccccc3)nc21` stands > 100 µM. For `Nc1c(Cl)c([N+](=O)[O-])cc2c1OCCCCO2`, the TGI is > 100 µM. As to `CCCC(=O)NNc1[nH]c(-c2ccc(OC)cc2)cc1C(=O)OCC`, the GI50 is 44.5 µM and the TGI is > 100 µM. Turning to `CCOC(=O)c1c(-c2ccccc2)[nH]c2ccc(Cl)cc2c1=O`, the TGI is > 100 µM.

The compound `COC(=O)C#Cc1ccc([N+](=O)[O-])cc1` registered a TGI of 11.9 µM. Take `C/C1=C\CC[C@@]2(C)O[C@@H]2[C@H]2OC(=O)C(C)C2C[C@H]1O` (some centres undefined): the TGI is > 100 µM. Consider `COC(=O)c1nc2c3c(cccc3c1C(=O)OC)Nc1ccccc1-2`, for which the TGI was > 100 µM. On the same count and under the same terms, under `COc1ccc(-n2cnc3c(NC(C)(C)C(=O)O)ncnc32)cc1` stands > 100 µM.

As to `COc1cc(C(=O)n2nc(N3CCN(C)CC3)c3cc(N)ccc32)cc(OC)c1OC`, the GI50 is 3.7 µM and the TGI was > 100 µM. Turning to `O=c1c2c3c(sc2nc2n1N=CN(c1ccc(Cl)cc1)C2)CCCC3`, the TGI is > 100 µM.

`CC(=C(C(=O)O)C(=O)O)c1cc(-c2cccs2)cc(-c2ccc(Cl)cc2)c1O` displayed a TGI of 36.6 µM.

For the compound `CCC(=C(c1ccc(OCc2ccccc2)cc1)c1ccc(OCc2ccccc2)cc1)c1ccc(OC)cc1`, the TGI was > 100 µM.

Regarding `Cn1cnc2c(NCc3ccccc3)nc(NCCO)nc21`, the GI50 is 99.2 µM and the TGI came out at 410 µM. The corresponding values for `O=C(Nc1ccc(Br)c(Cl)c1)c1cc(F)ccc1O` are 0.817 µM and > 13.7 µM. The corresponding values for `Cc1ccc(C(=O)NC2CCCCC2)cc1-c1ccc(C(=O)NCC2CC2)cc1` are > 17.8 µM and > 25 µM.

Turning to `CC1=CCC[C@]2(C)C1=CC(=O)O[C@H]2c1ccoc1`, the TGI was > 100 µM. The compound `NC(=O)NC(=O)c1ccc(NC(=O)CBr)cc1` came in with a TGI of 19.7 µM.

With `CC(CCC(=O)O)[C@H]1CCC2[C@H]3C(CC(=O)[C@@]21C)[C@@]1(C)CCC(O)C[C@H]1C[C@@H]3O` (some centres undefined), the TGI was > 100 µM. On the same count and under the same terms, the same measure for `C(/C=N/NC1=NCCCN1)=N\NC1=NCCCN1`: > 100 µM. Turning to `CC(C)N(c1cc2c(cc1F)c(=O)c(C(=O)O)cn2-c1ccc(N2CCN(C)CC2)cn1)C(C)C`, the TGI is > 100 µM. On the same count and under the same terms, under `COC(=O)C1C(=O)O[C@@H](c2ccc(OC)cc2OC)C1C(=O)OC` (some centres undefined) stands > 100 µM. For the compound `O=C(O)c1cccc(CC(Br)C(=O)O)c1` (centres undefined), the TGI is > 100 µM. Regarding `CN(C)CC1CCn2c(c(C3=C(c4cn(C)c5ccccc45)C(=O)NC3=O)c3ccccc32)C1` (centres undefined), the GI50 was 3.96 µM and the TGI was 8.84 µM. `CC(C)N1CCCOC(c2ccc([N+](=O)[O-])cc2)O1` (centres undefined): the TGI is > 100 µM. On the same count and under the same terms, under `Cc1nc2ccc(N=NN(C)C)cc2[nH]1` stands > 100 µM. Take `COC(=O)Nc1nc2ccc(Oc3ccc(NC(=O)Nc4cccc(Cl)c4)cc3)cc2[nH]1`: the GI50 was 1.83 µM and the TGI is > 22.5 µM.
